# Results published in the supplement of paper PMC10928670.
# MIC of N. gonorrhoeae strains collected 1971-2005, agar dilution (CLSI M07); ranges 0.03-64 mg/L (penicillin, azithromycin), 0.015-1 (cefixime, ceftriaxone), 0.5-256 (spectinomycin); higher = less susceptible. No active / inactive call per row; the paper counts cefixime and ceftriaxone above 0.25 and azithromycin above 1 mg/L as non-susceptible. The source says 'penicillin'; penicillin G is assumed. Isolates are numbered anew.
# Legend:
# Experiment in all cases: Agar dilution by CLSI M07.
# cefixime = compound: C=CC1=C(C(=O)O)N2C(=O)[C@@H](NC(=O)/C(=N\OCC(=O)O)c3csc(N)n3)[C@H]2SC1 [cefixime]
# penicillin G = compound: CC1(C)S[C@@H]2[C@H](NC(=O)Cc3ccccc3)C(=O)N2[C@H]1C(=O)O [penicillin G]
# azithromycin = compound: CC[C@H]1OC(=O)[C@H](C)[C@@H](O[C@H]2C[C@@](C)(OC)[C@@H](O)[C@H](C)O2)[C@H](C)[C@@H](O[C@@H]2O[C@H](C)C[C@H](N(C)C)[C@H]2O)[C@](C)(O)C[C@@H](C)CN(C)[C@H](C)[C@@H](O)[C@]1(C)O [azithromycin]
# spectinomycin = compound: CN[C@@H]1[C@H](O)[C@H](NC)[C@H]2O[C@@]3(O)C(=O)C[C@@H](C)O[C@H]3O[C@@H]2[C@H]1O [spectinomycin]
# ceftriaxone = compound: CO/N=C(\C(=O)N[C@@H]1C(=O)N2C(C(=O)O)=C(CSc3nc(=O)c(O)nn3C)CS[C@H]12)c1csc(N)n1 [ceftriaxone]
Test System,MIC (cefixime) [µg/mL],MIC (penicillin G) [µg/mL],MIC (azithromycin) [µg/mL],MIC (spectinomycin) [µg/mL],MIC (ceftriaxone) [µg/mL]
"Neisseria gonorrhoeae isolate 65 (GyrA: S91F, ParC: Wild type, mtrR: G45D, penA: Type VII NonMosaic, A501V, A517G, G543S, ponA: L421P, porB: G120K, A121D)",0.06,2,0.06,16,0.06
"Neisseria gonorrhoeae isolate 66 (GyrA: Wild type, ParC: Wild type, mtrR: -35A Del, penA: Type XXII NonMosaic, A517G, ponA: L421P, porB: G120K, A121D)",0.06,> 64,0.25,32,0.03
"Neisseria gonorrhoeae isolate 67 (GyrA: Wild type, ParC: Wild type, mtrR: -35A Del, penA: Type IX NonMosaic, A517G, ponA: L421P, porB: G120D)",0.03,4,0.5,16,0.03
"Neisseria gonorrhoeae isolate 68 (GyrA: Wild type, ParC: Wild type, mtrR: -35A Del, G45D, penA: Type II NonMosaic, A517G, ponA: L421P, porB: G120D)",0.03,2,0.5,16,0.03
"Neisseria gonorrhoeae isolate 69 (GyrA: Wild type, ParC: Wild type, mtrR: Wild type, penA: Type I NonMosaic, ponA: Wild type, porB: Wild type)",≤ 0.015,0.125,0.25,16,≤ 0.015
"Neisseria gonorrhoeae isolate 70 (GyrA: Wild type, ParC: Wild type, mtrR: Wild type, penA: Type I NonMosaic, ponA: Wild type, porB: Wild type)",≤ 0.015,0.06,0.06,16,≤ 0.015
"Neisseria gonorrhoeae isolate 71 (GyrA: S91F, D95N, ParC: Wild type, mtrR: -35A Del, G45D, penA: Type XI NonMosaic, A501V, A517G, ponA: L421P, porB: porB1a)",0.06,1,1,16,0.125
"Neisseria gonorrhoeae isolate 72 (GyrA: S91F, D95G, ParC: Wild type, mtrR: -35A Del, penA: Type V NonMosaic, A517G, G543S, ponA: L421P, porB: G120K, A121D)",0.03,2,0.25,16,0.03
"Neisseria gonorrhoeae isolate 73 (GyrA: S91F, ParC: Wild type, mtrR: G45D, penA: Type IV NonMosaic, A517G, G543S, ponA: L421P, porB: G120K, A121D)",≤ 0.015,1,0.25,16,0.03
"Neisseria gonorrhoeae isolate 74 (GyrA: Wild type, ParC: Wild type, mtrR: A39T, penA: Type II NonMosaic, A517G, ponA: Wild type, porB: Wild type)",≤ 0.015,0.125,0.06,16,≤ 0.015
"Neisseria gonorrhoeae isolate 75 (GyrA: Wild type, ParC: Wild type, mtrR: G45D, penA: Type 249 NonMosaic, A517G, ponA: Wild type, porB: G120D)",≤ 0.015,0.25,≤ 0.03,16,≤ 0.015
"Neisseria gonorrhoeae isolate 76 (GyrA: Wild type, ParC: Wild type, mtrR: -35A Del, G45D, penA: Type II NonMosaic, A517G, ponA: L421P, porB: G120K, A121D)",0.03,> 64,0.125,32,0.03
"Neisseria gonorrhoeae isolate 77 (GyrA: Wild type, ParC: Wild type, mtrR: G45D, penA: Type XXII NonMosaic, A517G, ponA: Wild type, porB: Wild type)",0.03,0.25,0.06,16,≤ 0.015
"Neisseria gonorrhoeae isolate 78 (GyrA: S91F, ParC: Wild type, mtrR: G45D, penA: Type IV NonMosaic, A517G, G543S, ponA: L421P, porB: G120K, A121D)",0.03,2,0.06,16,0.06
"Neisseria gonorrhoeae isolate 79 (GyrA: Wild type, ParC: Wild type, mtrR: -35A Del, G45D, penA: Type XXII NonMosaic, A517G, ponA: L421P, porB: G120D)",0.03,0.5,0.06,16,0.03
"Neisseria gonorrhoeae isolate 80 (GyrA: Wild type, ParC: Wild type, mtrR: -35A Del, penA: Type IX NonMosaic, A517G, ponA: L421P, porB: G120K, A121D)",0.03,4,1,16,0.03
"Neisseria gonorrhoeae isolate 81 (GyrA: Wild type, ParC: Wild type, mtrR: -35A Del, penA: Type XXII NonMosaic, A517G, ponA: L421P, porB: G120K, A121D)",≤ 0.015,1,0.25,64,≤ 0.015
"Neisseria gonorrhoeae isolate 82 (GyrA: Wild type, ParC: Wild type, mtrR: Wild type, penA: WT NonMosaic, ponA: Wild type, porB: Wild type)",≤ 0.015,≤ 0.03,0.06,16,≤ 0.015
"Neisseria gonorrhoeae isolate 83 (GyrA: Wild type, ParC: Wild type, mtrR: -35A Del, G45D, penA: Type IV NonMosaic, A517G, G543S, ponA: L421P, porB: G120K, A121D)",0.06,4,0.25,16,0.06
"Neisseria gonorrhoeae isolate 84 (GyrA: Wild type, ParC: Wild type, mtrR: Wild type, penA: Type XXII NonMosaic, A517G, ponA: L421P, porB: porB1a)",≤ 0.015,0.25,0.06,8,≤ 0.015
"Neisseria gonorrhoeae isolate 85 (GyrA: Wild type, ParC: Wild type, mtrR: -35A Del, A39T, penA: Type IV NonMosaic, A517G, G543S, ponA: L421P, porB: G120D)",0.03,2,0.25,32,0.03
"Neisseria gonorrhoeae isolate 86 (GyrA: Wild type, ParC: Wild type, mtrR: -35A Del, G45D, penA: Type XXII NonMosaic, A517G, ponA: Wild type, porB: G120D)",0.03,1,0.5,16,0.03
"Neisseria gonorrhoeae isolate 87 (GyrA: Wild type, ParC: Wild type, mtrR: -35A Del, G45D, penA: Type I NonMosaic, ponA: L421P, porB: porB1a)",≤ 0.015,0.06,≤ 0.03,32,≤ 0.015
"Neisseria gonorrhoeae isolate 88 (GyrA: Wild type, ParC: Wild type, mtrR: -35A Del, penA: Type XXII NonMosaic, A517G, ponA: L421P, porB: G120K, A121D)",≤ 0.015,0.125,≤ 0.03,16,≤ 0.015
"Neisseria gonorrhoeae isolate 89 (GyrA: Wild type, ParC: Wild type, mtrR: Wild type, penA: Type XXII NonMosaic, A517G, ponA: L421P, porB: Wild type)",≤ 0.015,> 64,0.06,16,≤ 0.015
